This passage reports binding signal results from article PMC7819943, “Rice protein-binding microarrays: a tool to detect cis-acting elements near promoter regions in rice”.

The other results are listed elsewhere or left out.

The test addresses T1, OsWOX13 (Oryza sativa, UniProt Q5QMM3 1-267).
T1 sequence: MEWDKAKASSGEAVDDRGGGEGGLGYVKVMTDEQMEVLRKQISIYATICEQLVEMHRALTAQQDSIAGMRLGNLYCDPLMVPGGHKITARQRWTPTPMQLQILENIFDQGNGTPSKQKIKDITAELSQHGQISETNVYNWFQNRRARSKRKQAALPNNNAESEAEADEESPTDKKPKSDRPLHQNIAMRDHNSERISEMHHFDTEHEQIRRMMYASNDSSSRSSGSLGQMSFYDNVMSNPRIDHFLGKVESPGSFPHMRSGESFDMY
The test is described as follows: protein-binding microarray (RPBM); PBS, 2% BSA, 51.3 ng/ul salmon testes DNA, 50 uM zinc acetate, 200 nM TF, 25 C, 1 h; high values mean tight binding. Particulars: protein: recombinant; tags: N-terminal polyhistidine and DsRed monomer fusion (pET32a); label: CyDye5-dUTP incorporated in the synthesized complementary strand; 3' TTTTT single-stranded linker to array surface; dsDNA, one strand shown. In a few lines: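 Binding signal here means per-feature fluorescence intensity in arbitrary units. The values were read on an Axon 4000B scanner after a custom Agilent array, double-stranded by primer extension with Cy5-dUTP, was incubated with 200 nM protein at 25 °C for 1 h in PBS with 2% BSA, salmon testes DNA and 50 µM zinc acetate, then washed. The proteins were transcription factors with an N-terminal polyhistidine tag and DsRed, expressed in E. coli BL21-CodonPlus and purified on Ni–NTA.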
As for “CGAGGTTCCCAATCACGCTACCTCCACTCACAGAGCCAACCGGAGTCACCTAGTGCAG”, the binding signal is 3410 fluorescence intensity (a.u.).

With “CACAATCACGAATTGAAGAAAGTCCTTCATTTCACATCAACGGAGTCACCTAGTGCAG”, the binding signal was 3660 fluorescence intensity (a.u.).

In the case of “GATCTGATTAAGCATCTCATGCTTTCTCGCTTTGATTCTCCGGAGTCACCTAGTGCAG”, the binding signal was 5880 fluorescence intensity (a.u.).

“ATTTACTGATAGAGCATGAATTTCCATTCTACTCTTTATGCGGAGTCACCTAGTGCAG”: the binding signal was 6860 fluorescence intensity (a.u.).

For the sequence “ACAGCGGTTAATTAACAGGTTAAGCGCAGGGTATCGACGCCGGAGTCACCTAGTGCAG”, the binding signal is 14900 fluorescence intensity (a.u.).

Consider “CAACTTCCCAATTAACACCGGTAATGGGGACTTGACACTTCGGAGTCACCTAGTGCAG”, for which the binding signal is 13400 fluorescence intensity (a.u.).

As to “GCGAGCAAGATTGGAATCAGCGTGGTGGTGGTAGGGGAGGCGGAGTCACCTAGTGCAG”, the binding signal is 8240 fluorescence intensity (a.u.).

For the sequence “AATAAGAATAATTATGAATAGAAACAGACCCTGACACTGCCGGAGTCACCTAGTGCAG”, the binding signal was 6170 fluorescence intensity (a.u.).

On to “CTGCTCAATCAATCATGGCGCATCATCTCGTCGTCGTGCTCGGAGTCACCTAGTGCAG”, for which the binding signal was 31200 fluorescence intensity (a.u.).

With “GGGAGAGGGGTGTGGGGCGGAGAGGGAGAGGGAGATGGGACGGAGTCACCTAGTGCAG”, the binding signal was 5890 fluorescence intensity (a.u.).

As to “GGTAATTAACCGACGGTAAAGGAAACCGTAAGTCGTCTCTCGGAGTCACCTAGTGCAG”, the binding signal is 22400 fluorescence intensity (a.u.).

Take “ATCCATCATCTAACTGATTGACGGCTTGCTCCTCCTTTTCCGGAGTCACCTAGTGCAG”: the binding signal was 36300 fluorescence intensity (a.u.).

Consider “ACGCAAAATTATCTTGTCGTCTCAAGCTCAGATGTTTATGCGGAGTCACCTAGTGCAG”, for which the binding signal is 3420 fluorescence intensity (a.u.).

Regarding “TAACCTGATTGGTGAAGGTCCCTTCAAATCCTGCATGATTCGGAGTCACCTAGTGCAG”, the binding signal was 30700 fluorescence intensity (a.u.).

As to “AATATGAGACAATTAATTGGGTTCATAGTTGTGCTTAATTCGGAGTCACCTAGTGCAG”, the binding signal was 10400 fluorescence intensity (a.u.).

As for “AAATAACAAAATTACAAGTTTAACATAAATATGTAATCACCGGAGTCACCTAGTGCAG”, the binding signal was 10300 fluorescence intensity (a.u.).

Regarding “AAGCCTATTTATGATATAATCACACATGAATACACAATCACGGAGTCACCTAGTGCAG”, the binding signal is 4600 fluorescence intensity (a.u.).

Regarding “CCTACACAGTACAGGCCCACTAATTGGCCCAACTGACCTACGGAGTCACCTAGTGCAG”, the binding signal is 3220 fluorescence intensity (a.u.).

Turning to “ATGACAAGAAAGAAAATCAATTAGCGTCTCGCGTATTACTCGGAGTCACCTAGTGCAG”, the binding signal was 4120 fluorescence intensity (a.u.).

In the case of “GACTTGATGGGCCTTGATGAGCCCAGCCCATTATACCGGCCGGAGTCACCTAGTGCAG”, the binding signal was 13400 fluorescence intensity (a.u.).

As for “AACCAAATCATTGGGAAGGCCAAACCTAGACGCAGACTCGCGGAGTCACCTAGTGCAG”, the binding signal was 4370 fluorescence intensity (a.u.).

Turning to “TCTTCTACGATAATTAATTACTCCGGTGCACGTAGGTCAACGGAGTCACCTAGTGCAG”, the binding signal was 8510 fluorescence intensity (a.u.).

As to “CTCAACATGAACTTCTTGATTACCTGTGACCCAGCCACGGCGGAGTCACCTAGTGCAG”, the binding signal is 3150 fluorescence intensity (a.u.).

Consider “CCTTGGCCTTAATTATTGACGTAGTACGTACACTTGATGCCGGAGTCACCTAGTGCAG”, for which the binding signal was 8540 fluorescence intensity (a.u.).

As to “AAGAATAATTAGCCTAAATACAAGTGCATGTGTCAAATGTCGGAGTCACCTAGTGCAG”, the binding signal was 6230 fluorescence intensity (a.u.).

For “AAAAGTAATTTAGACATATCATAAAAGTAATTTATGATTTCGGAGTCACCTAGTGCAG”, the binding signal is 9340 fluorescence intensity (a.u.).

For the sequence “GTGATACAAATCAAATCAGATTTGCCCAATAATTGAGCGACGGAGTCACCTAGTGCAG”, the binding signal was 25900 fluorescence intensity (a.u.).

With “TTCTAATTAATATGTCATTAGCAAATGTTTACTGTACCACCGGAGTCACCTAGTGCAG”, the binding signal is 38300 fluorescence intensity (a.u.).

“ACTGGTTGAATAATTTGCAGAAATTATCTTCTGAAGTGCGCGGAGTCACCTAGTGCAG”: the binding signal was 11600 fluorescence intensity (a.u.).

With “TCATCATTGATGGATTTGGAGCAGCAGGTCAAAACTGTGACGGAGTCACCTAGTGCAG”, the binding signal is 5160 fluorescence intensity (a.u.).

Regarding “ACAAGATAACATAAATTATAGTGAGCCTGTTATTGTTTAACGGAGTCACCTAGTGCAG”, the binding signal is 8724 ± 23.3 fluorescence intensity (a.u.).

Regarding “GTAATTGATAGTACTGTGAAAATACTACTCCTGATGAGTTCGGAGTCACCTAGTGCAG”, the binding signal was 51800 fluorescence intensity (a.u.).

Consider “TCTAATTAACACCTTTCACTTATGCATTATGCAAATACAACGGAGTCACCTAGTGCAG”, for which the binding signal was 18200 fluorescence intensity (a.u.).

Turning to “AGTCATCTGTAATTTGCAGACAGAAATGGAGCTTTCCATCCGGAGTCACCTAGTGCAG”, the binding signal was 5500 fluorescence intensity (a.u.).

On to “TTCAATTAATCTTGCTATAACTGCCGTGTCGGGAGACAACCGGAGTCACCTAGTGCAG”, for which the binding signal was 9740 fluorescence intensity (a.u.).

With “GGCAAAACATGCAAATTGACCAATGGTACGTGACAGACAGCGGAGTCACCTAGTGCAG”, the binding signal is 5440 fluorescence intensity (a.u.).

In the case of “TTGTATAAATAAGTTATTAGATTGACTACAGATGAATTGACGGAGTCACCTAGTGCAG”, the binding signal was 20500 fluorescence intensity (a.u.).

On to “TCCAAAATTTTAGTTTATTCAATTTAGTTGGAATTAAATTCGGAGTCACCTAGTGCAG”, for which the binding signal was 4700 fluorescence intensity (a.u.).

“ATATATATATATATATATATATATATATATATATAATGGGCGGAGTCACCTAGTGCAG”: the binding signal is 15800 fluorescence intensity (a.u.).

As to “AATATACAATGTGATTAGTATTTTGGATCAATGACGAGGTCGGAGTCACCTAGTGCAG”, the binding signal is 12700 fluorescence intensity (a.u.).

As for “TGTATATTTGTGGATTGATATATCATATATTAATCTATTACGGAGTCACCTAGTGCAG”, the binding signal is 3170 fluorescence intensity (a.u.).

As to “GCCGTGGATGAAACTTTGATTGTCGTATAGGCTGAGCTCTCGGAGTCACCTAGTGCAG”, the binding signal was 4720 fluorescence intensity (a.u.).
